Measurements from PubChem BioAssay AID686979 (National Center for Advancing Translational Sciences (NCATS), 2013).
Values joined by “and” are separate entries in the source; they are usually repeats but may differ in a detail not shown here. Identical values can stand only once. Out of some 420,000 compounds screened, about 50,000 (12%) were called active. The shares of active, inactive and inconclusive entries below differ from those in the screen. Calls follow the shape of the dose curve; as a rule, active = well fitted inhibition curve with a large enough effect; inconclusive = small, poorly fitted or top-dose-only effect; inactive = flat fitted curve, though single readings scatter. Potencies of inconclusive entries are left out as doubtful fits.
% is scaled to controls: 0 for no effect and ±100 for the full control effect; potency is read from the fitted curve at half-maximal effect; tags tell the direction and shape of the fitted curve.

Assay: qHTS for Inhibitors of human tyrosyl-DNA phosphodiesterase 1 (TDP1): qHTS in cells in presence of CPT; also: nearly all actives have a fitted effect of over 55% in size
Details: chicken DT40 Tdp1-/-;hTDP1 cells + 20 nM CPT, ATP luminescence, 48 h; activity change, negative = growth inhibition: at 46.2 µM (top of the series)
Procedure, shortened: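 Cell growth measured by CellTiter-Glo luminescence after a minimum 48 h, 37 C compound exposure with 20 nM CPT in Tdp1-knockout DT40 cells stably expressing hTDP1, seeded 400/well; qHTS titration format.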
For `COc1ccc(C(=O)N2CCC3(CCCN(c4cccc(-c5ccccc5)c4)C3)CC2)cc1`, the Potency was inconclusive [inhibitor, single point].
In the case of `CCSC1=C(C#N)C(c2ccc3c(c2)OCO3)C2=C(CCCC2=O)N1` (stereo unspecified), the Potency is reported as inconclusive [inhibitor, single point].
For `Cc1nc2sc(C(N)=O)c(N)c2c(-c2ccc(Br)cc2)c1C(=O)Nc1ccc(Cl)cc1`, the Potency was inconclusive [inhibitor, single point].
In the case of `COC(=O)CCCC1=CC2=C(c3ccccc3)C(=O)C(C)(OC(=O)C3CCCC3)C(=O)C2=CN1C1CC1` (stereo unspecified), the Potency is reported as inconclusive [inhibitor, single point].
With `Cc1cccc(NC(=O)c2ccc(-c3nc(CSc4ccccc4)c(C)o3)cc2)c1C` the Potency was active: 5.17 µM.
For `CC(=O)c1cccc(NC(=O)COC(=O)c2ccc(S(C)(=O)=O)c([N+](=O)[O-])c2)c1`, the Potency was active: 13 µM and active: 6.31 µM.
With `O=C(COc1ccc(Br)cc1)NCCCn1ccnc1` the “activity change, negative = growth inhibition” value was inactive: 13.2%.
With `CN(C)CCCN=Cc1c(O)n(Cc2ccccc2)c(=O)c2ccccc12` the Potency was inconclusive [inhibitor, single point].
For `CC(=O)Nc1ccc(S(=O)(=O)N2CCN=C2SCc2cccc(C)c2)cc1`, the Potency was inconclusive [inhibitor, single point].
With `O=c1c2ccccc2n(Cc2ccccc2F)c(=O)n1-c1cccc(F)c1` the Potency was inconclusive [inhibitor, single point].
For `COc1ccccc1CNC(=O)c1cnc2sc(N3CCCCCC3)nn2c1=O`, the Potency was active: 16.4 µM.
With `COc1ccc(-c2ccc3c(c2)O[C@@H](CN(C)C(=O)c2ccccc2F)[C@@H](C)CN([C@@H](C)CO)S3(=O)=O)cc1` the activity change, negative = growth inhibition was inconclusive: -32.6% [inhibitor].
With `COc1cccc(CNC(=O)CN2C(=O)NC(Cc3ccccc3)(c3ccccc3)C2=O)c1` (stereo unspecified) the Potency was inconclusive [inhibitor, single point].
For `O=C(CSc1nnc2ccc3ccccc3n12)c1ccc(F)cc1`, the Potency was inconclusive [inhibitor, single point].
For `CC(=O)N1c2ccc(S(=O)(=O)N3CCC(C(=O)Nc4cccc(C)n4)CC3)cc2CC1C` (stereo unspecified), the Potency was inconclusive [inhibitor, single point].
With `Cc1ccccc1C(=O)Nc1ccc2c(c1)CCCN2C(=O)c1cccs1` the Potency was active: 18.4 µM.
With `COC(=O)c1c(C)[nH]c(C)c1-c1ccccc1Cl` the Potency was inconclusive [inhibitor, single point].
With `CC(COC(=O)c1ccccc1)(COC(=O)c1ccccc1)/[N+]([O-])=C/c1ccccc1` the “activity change, negative = growth inhibition” value was inactive: -19.3%.
In the case of `O=C(C(=O)N1CCN(c2ccc([N+](=O)[O-])cc2)CC1)c1cn(CC(=O)N2CCOCC2)c2ccccc12`, the Potency is reported as inconclusive [inhibitor, single point].
For `COc1ccc2c(C)nc(N/C(N)=N/S(=O)(=O)c3ccc(C)cc3)nc2c1`, the Potency was inconclusive [inhibitor, single point].
For `C[C@H](CO)N1C[C@H](C)[C@H](CN(C)C(=O)Nc2ccc(F)cc2)Oc2ccc(NC(=O)NC3CCCCC3)cc2CC1=O`, the Potency was inconclusive [inhibitor, single point].
For `CSc1ccc(CNC(=O)CCn2c(=O)c3cccn3c3ccc(F)cc32)cc1`, the Potency was inconclusive [inhibitor, single point].
For `CCC(=O)N1CCc2cc(Br)cc(S(=O)(=O)CC(=O)OC)c21`, the Potency was inconclusive [inhibitor, partial curve].
With `CC(OC(=O)c1cccc([N+](=O)[O-])c1)C(=O)N1CCc2ccccc21` (stereo unspecified) the Potency was inconclusive [inhibitor, single point].
For `CCCc1c(C(=O)N/N=C/c2c[nH]c3ccccc23)nnn1-c1nonc1N`, the Potency was inconclusive [inhibitor, single point].
In the case of `CCCn1c(SCC(=O)N2CCN(c3ccccc3)CC2)nc2ccccc2c1=O`, the Potency is reported as inconclusive [inhibitor, single point].
With `COC(=O)c1cc2occc2n1Cc1cccc(C)c1` the Potency was inconclusive [inhibitor, partial curve, poor fit].
With `Cc1cc(=O)oc2cc(OCC(=O)c3ccc4c(c3)NC(=O)CO4)ccc12` the “activity change, negative = growth inhibition” value was inactive: 0.446%.
For `CCn1nc(C)cc1C(=O)NC1CCCc2c1cnn2-c1ccc(C)c(C)c1` (stereo unspecified), the Potency was inconclusive [inhibitor, single point].
In the case of `Cc1ccc(NC(=O)CSC(C)C(=O)OCC(=O)N2CCN(C(=O)c3ccco3)CC2)cc1` (stereo unspecified), the “activity change, negative = growth inhibition” value is reported as inactive: -8.98%.
In the case of `COc1ccc(C(=O)N2CCC(c3nc(-c4ccc(S(=O)(=O)N5CCCC5)cc4)no3)CC2)cc1`, the Potency is reported as active: 23.1 µM.
With `CCOC(=O)C1CCN(C(=O)CN2C(=O)NC(C)(c3ccc4cc(OC)ccc4c3)C2=O)CC1` (stereo unspecified) the Potency was active: 18.4 µM.
With `O=C(c1cccc(S(=O)(=O)N2CCCC2)c1)N1CCN(c2ccccc2)CC1` the Potency was inconclusive [inhibitor, single point].
With `CCCCCCCCCCn1ccc(=N)cc1` the Potency was active: 0.0058 µM.
For `Cc1ccc(S(=O)(=O)N2CCN(CCOc3c(Cl)cccc3Cl)CC2)cc1C`, the Potency was active: 20.6 µM.
In the case of `C/C(=N\Nc1nc(C)cc(-c2ccccc2)n1)c1ccc(C)o1`, the Potency is reported as inconclusive [inhibitor, single point].
For `CCOC(=O)C(=O)Nc1cc(C)on1`, the “activity change, negative = growth inhibition” value was inactive: -0.0036%.
With `CCOC(=O)Nc1ccc(S(=O)(=O)NCc2ccccc2)cc1` the Potency was inconclusive [inhibitor, single point].
With `Cc1cccc(OCCOC(=O)c2c(-c3ccccc3)noc2C)c1` the Potency was inconclusive [inhibitor, single point].
With `CC(C)(C)c1cc(C(C)(C)C)cc(S(=O)(=O)CCc2ccccn2)c1` the Potency was inconclusive [inhibitor, single point].
For `Cc1ccc(C)c(N(C)C(=O)c2ccc3c(=O)n4c(nc3c2)CCCCC4)c1`, the Potency was inconclusive [inhibitor, single point].
